Assay results reported in the RNAGym collection of RNA variant scans (doi:10.1093/nar/gkz1192).
Read counts are not given, so values of variants with three or more changes are uncertain.

B1: CPEB3 Ribozyme (parent)
chain: UAACAGGGGGCCACAGCAGAAGCGUUCACGUCGCAGCCCCUGUCAGAUUCUGGUGAAUCUGCGAAUUCUGCUGUAUAUCUC

Variants of: B1
Assay: self-cleavage, relative activity (ratio to wild type); higher = more cleavage; in vitro, sequencing
In short: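 Barcoded CPEB3 ribozyme mutants, produced by rounds of error-prone PCR, self-cleaved while being transcribed with T7 RNA polymerase for 5 hours at 37°C and during a subsequent 15 min DNase I step before EDTA was added. Sequencing of template-switched cDNA on Illumina gave cleaved and total reads, and DNA sequencing assigned barcodes to variants. Each variant's relative activity is its cleaved/total read fraction divided by the unmutated ribozyme's fraction, averaged across three batches. A variant needed a minimum of 5 reads.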

Row | Variant | self-cleavage
1 | UAACAGGGGGCCUCAGCAGAAGCGUUCACGUCGCUGCCCCUGUCAGAUUCUGGUGAAUCUGCGAGUUCCGCUGUAUAUCUC [A13U A35U A65G U69C] | 0.05
2 | UAACAGGGGGCCUCAGAAGAAGCGUUCACGUCGCAGCCCCUGACAGAUUCUGGUGAAUCUGCGAAUUCUGCCGUAUAUCUC [A13U C17A U43A U72C] | 0.58
3 | UAACAGGGGGCCUCAGCAGAAGGGUUCACGUCGCAGCCCCUGUCAGAUUCUGGUGAAUCUGCGAAUUCUGCUGUAAACCUC [A13U C23G U76A U78C] | 0.06
4 | UAACAGGGGGCCUCAGCAGAAGCGUUCACGUCGCAGCCCCUGUCAGAUUCUGGUGAAUCUGCGUAUUCUGCUGUAUAUCCC [A13U A64U U80C] | 0.57
5 | UAACAGGGGGCCUCAGCAGAAGAGUUAACGUCGCAGCCACUGUCAGAUUCUGGUGAAUCUGCAUAUUCUGCCGUAUAUCUC [A13U C23A C27A C39A G63A A64U U72C] | 0.04
6 | UAACAGGGGGCCUCAGCAGAAGCGUUCACGUCGCUGCCCCUGUCAGAUUCUGGUGAAUCAGCGAAUUCUGCUGUGUAUCUC [A13U A35U U60A A75G] | 0.16
7 | UAACAGGGGGCCUCAGCAGAAGCGUUCAUGUCGCAGCCCCUGUCAGAUUCUGGUGAAUCUGCGAAUACUGCUGUAUGUCUC [A13U C29U U67A A77G] | 0.26
8 | UAACAGGGGGCCUCAGCAGAAGCGUUCACGUCGCAGCCCCUGUCAGAUUCUGGUGAAUCUGCGAGUUCUGCUGUAAAUCCC [A13U A65G U76A U80C] | 0.7
9 | UAACAGGGGGCCUCAGCAGAAGCGUUCACGUCGCAGCCCCUGUCAGGUUCUGGUGAAUCUGCGAAUUCUACUGUAAGUCUC [A13U A47G G70A U76A A77G] | 0.76
10 | UAACAGGGGGCCUCAGCAGAAGAGUUCACGUCGCAGCGCCUGUCAGAUUCCGGUGAAUCUGCGAGUUCUGCUGUAUGUCUC [A13U C23A C38G U51C A65G A77G] | 0.06
11 | UAACAGGGGGCCUCAGCAGAAGCGUUCACGUCGCAGCCCCUGUCGGAUUCUGGUGAAUCUGCGAAUACUGCUGUUUAUCUC [A13U A45G U67A A75U] | 0.57
12 | UAACAGGGGGCCUCAGCAGAAGCGUUCACGUAGCAACCCCUGUCGGAUUCUGGUGAAUCUGCGAAUUCUGCCGUAUAUCUC [A13U C32A G36A A45G U72C] | 0.08
13 | UAACAGGGGGCCUCAGCAGAAGCGUUCACGUCGCAGCCCCUGUCAGAUUCUGGUGGAUCUGCGCAUUCUGCUGUAUAUCUC [A13U A56G A64C] | 0.24
14 | UAACAGGGGGCCUCAGCAGAAGCGUUCACGUCGCAGCCCCUGUCAGAUUCUGGUGAAUCUGCGAGUCCUGCUGUAUAACUC [A13U A65G U67C U78A] | 0.3
15 | UAACAGGGGGCCUCAGCAGAAGCGUUCACGUCGCAGCCCCUGUCCGAUUCUGGUGAGUCUGCGAAUUCUGCUGUAUAUCUC [A13U A45C A57G] | 0.11
16 | UAACAGGGGGCCUCAGCAGAAGCGUUCACGUCGCAGCCCCUGUCAGAUUCUGGUGAAUCUGCGAUUUCUGCUGUAUAUCAC [A13U A65U U80A] | 0.22
17 | UAACAGGGGGCCUCAGCAGAAGGGUCCACGUCGCAGCCUCUGUCAGAUUCUGGUGAAUCUGCGAAUUCGGCUGUAUAUCUC [A13U C23G U26C C39U U69G] | 0.05

Row | Variant | self-cleavage
18 | UAACAGGGGGCCUCAGCAGAAGCGUUCACGUCGCAGCCCCUGUCAGUUUCUGGUGUAACUGCGAAUUCUGCUGAAUAUCUC [A13U A47U A56U U58A U74A] | 0.75
19 | UAACAGGGGGCCUCAGCAGAAGCGUUCACGUCGCAGCCCCUGUCAGAUUCUGGUGGAUCUGCGAAUUCUGCUGCAUAUCUC [A13U A56G U74C] | 1.24
20 | UAACAGGGGGCCUCAGCAGAAGAGUUCACGUCGCAGCCCCUGUCAGAUUCUGGUGAAUCAGCGAAUUCUGCUGUAUACCUC [A13U C23A U60A U78C] | 0.13
21 | UAACAGGGGGCCUCAGUAGAAGCGAUCACGUCGCAGCCCCUGUCAGAUUCUGGUGAAUCUGCGAGUUCUGCUGUAUAUCUC [A13U C17U U25A A65G] | 0.15
22 | UAACAGGGGGCCUCAGCAGAAGCGUUCACGUUGCAGCCCCUGUCAGAUUCUGGUGAAUCUGCGAGUUCUGCUGUAUAUCUC [A13U C32U A65G] | 0.1
23 | UAACAGGGGGCCUCAGCAGAAGAGUUCACGUCGCAGCCCCUGUCAGAUUCUGGUGAAUCUGCGAAAACUGCUGUAUAUCUC [A13U C23A U66A U67A] | 0.14
24 | UAACAGGGGGCCUCAGCAGAAGCGUUCACGUCGCAGCCCCUGUCAGAUUCUGGUGAGUCCGCGAAUUCUGCUGUAUACCUC [A13U A57G U60C U78C] | 0.59
25 | UAACAGGGGGCCUCAGUAGAAGUGUUCACGACGCAGCCCCCGUCAGAUUCUGGUGAAUCUGCGAAUUCUGCUGUAUAUCUC [A13U C17U C23U U31A U41C] | 0.08
26 | UAACAGGGGGCCUCAGUAGAAGCGUUCACGCCGCAGCCCCUGUCAGAUUCUGGUGAAUCUGCGAAUUCUGCUGUAUAUCUC [A13U C17U U31C] | 0.52
27 | UAACAGGGGGCCUCAGCAGAAGUGUUCACGUCGCAGCCCCUGUCAGAUUCUGGUGAAUCUGCGAAUCCUGCUGUAUAUCUC [A13U C23U U67C] | 0.38
28 | UAACAGGGGGCCUCAGUAGAAGCGUUCACGUCGCAGCCCCUGUCAGAUUCAGGUGAAUCUGCGAAUUCUGCUGUAUAUCUC [A13U C17U U51A] | 1.1
29 | UAACAGGGGGCCUCAGCAGAAGCGUUCACGUCGCAGCCCCUGUCGGAUUCGGGUGAAUCUGCGAAUUCUGCUGAAUAUCUC [A13U A45G U51G U74A] | 1.1
30 | UAACAGGGGGCCUCAGCAGAAGCGUUCACGUCGCAGCCCCUGUCGGAUUCUGGUGAAUCUGAGAAUUCUGCUGUAUAUCUC [A13U A45G C62A] | 0.23
31 | UAACAGGGGGCCUCAGCAGAAGCGUUCACGUCGCAGCCCCUGUCGGAUUCUGGUGAGUCUGCGAAUUCUGCUGUUUAUCUC [A13U A45G A57G A75U] | 0.94
32 | UAACAGGGGGCCUCAGCAGAAGCGUUCACGUCGCAGCCCCUGUCAGAUUCUGGUGAGUCCGCGAAUUCUGCUGUAUAUCUC [A13U A57G U60C] | 0.41
33 | UAACAGGGGGCCUCAGCAGAAGCGUUCACGUCGCAGCCCCUGUCAGAUUCUGGUGAGUCCGCGAAUCCUGCUGUAUAUCUC [A13U A57G U60C U67C] | 0.24
34 | UAACAGGGGGCCUCAGCAGAAGCGUUCACGUCGCAGCCCCUGUCGGAUUCUGGUGGAUCUGCGGAUUCUGCUGUAUAUCUC [A13U A45G A56G A64G] | 0.54
